Experimental data as given in PMC4336329 (PLoS ONE, 2015).
Among all 310,000 compounds or so, about 14,000 (4.5%) showed an effect of 50% or more. Effects have a minus sign here. This is one part of the list.

target: human ether-à-go-go-related gene (hERG) potassium channel (human, UniProt Q12809); assay: primary screen, population patch clamp on CHO cells stably expressing hERG
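Note: peak tail current of the secondary pulse compared with the same well before compound.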

Chain of human ether-à-go-go-related gene (hERG) potassium channel (Q12809 whole entry, looked up): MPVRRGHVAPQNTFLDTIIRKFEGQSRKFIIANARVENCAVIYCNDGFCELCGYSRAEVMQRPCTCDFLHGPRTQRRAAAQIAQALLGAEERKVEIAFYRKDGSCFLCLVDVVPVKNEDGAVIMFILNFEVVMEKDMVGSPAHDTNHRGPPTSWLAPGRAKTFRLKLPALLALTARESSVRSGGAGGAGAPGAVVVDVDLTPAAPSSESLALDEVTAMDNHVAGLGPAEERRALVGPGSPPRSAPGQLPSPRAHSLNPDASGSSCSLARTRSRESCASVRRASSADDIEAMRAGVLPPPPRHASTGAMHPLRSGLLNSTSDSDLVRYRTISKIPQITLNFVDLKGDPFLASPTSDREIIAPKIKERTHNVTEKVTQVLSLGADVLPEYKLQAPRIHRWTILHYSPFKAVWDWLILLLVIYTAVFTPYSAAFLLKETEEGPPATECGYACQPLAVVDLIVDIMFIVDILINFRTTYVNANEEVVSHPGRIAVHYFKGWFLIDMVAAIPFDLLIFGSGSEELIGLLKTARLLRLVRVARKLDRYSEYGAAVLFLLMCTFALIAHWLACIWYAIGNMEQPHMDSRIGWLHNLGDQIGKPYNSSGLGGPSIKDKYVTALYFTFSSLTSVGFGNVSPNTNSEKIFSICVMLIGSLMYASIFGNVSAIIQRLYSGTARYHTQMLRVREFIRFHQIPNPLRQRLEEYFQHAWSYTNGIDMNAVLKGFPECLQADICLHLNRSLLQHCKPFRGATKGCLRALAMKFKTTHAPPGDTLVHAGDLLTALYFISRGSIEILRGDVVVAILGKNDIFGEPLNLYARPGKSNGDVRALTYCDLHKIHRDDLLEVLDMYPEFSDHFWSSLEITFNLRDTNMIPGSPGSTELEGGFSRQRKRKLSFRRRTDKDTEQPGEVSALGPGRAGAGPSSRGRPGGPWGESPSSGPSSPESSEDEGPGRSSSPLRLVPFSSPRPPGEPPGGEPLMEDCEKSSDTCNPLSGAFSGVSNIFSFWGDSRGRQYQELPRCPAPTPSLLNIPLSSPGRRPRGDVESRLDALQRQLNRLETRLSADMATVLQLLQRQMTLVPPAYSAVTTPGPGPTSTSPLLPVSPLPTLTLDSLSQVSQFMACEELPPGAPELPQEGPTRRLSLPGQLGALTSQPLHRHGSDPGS

Structure (SMILES) | hERG current change (%, negative = inhibition) at 10uM [%]
CC(=O)O[C@H]1C[C@@H]2CC[C@@H]3[C@H](CC[C@@]4(C)[C@H]3C[C@H]([N+]3(C)CCCCC3)[C@@H]4OC(C)=O)[C@@]2(C)C[C@@H]1N1CCCCC1.[Br-] | 22.5
O=C(C[N+]12CCN(CC1)CC2)NCCc1ccc(Cl)cc1Cl.[Cl-] | 30.8
COCCCNC(=O)C(=O)Nc1ccc2c(c1)N(S(=O)(=O)c1cccs1)CCC2 | -3.08
CC(C)(C)NC(=O)CN(C(=O)CNS(=O)(=O)c1ccc(Cl)cc1)c1ccc2c(c1)OCCO2 | -19.9
O=C(Nc1ccccc1)c1ccc(F)cc1F | 2.86
O=C1CC(=O)N(Cc2ccco2)C(=O)N1 | 4.05
CCOC(=O)c1[nH]c2ccc(OC)cc2c1NC(=O)c1cccc(OC)c1 | -9.15
CC(=O)NS(=O)(=O)c1ccc(NC(=O)c2cc(-c3ccc(C)cc3)nc3ccccc23)cc1 | -2.67
C(=N\Nc1nc2ccccc2[nH]1)/c1ccc2ncccc2c1 | 6.85
CCn1cc(CNC(=O)c2ccc(C)s2)cn1 | 21.6
Cc1nn(-c2ccccc2)c(Cl)c1C(=O)Nc1ccccc1 | -5.14
c1ccc(-n2nnnc2-n2nnc3ccccc32)cc1 | 7.46
CC(=O)c1sc2nsc(SCCN3CCCC3)c2c1N | -0.32
O=C(CNS(=O)(=O)c1cccs1)Nc1ccc2c(c1)OCCO2 | 10.8
COCC(=O)N(Cc1cc2ccc(C)cc2[nH]c1=O)c1cccc(C)c1 | -8.87
C/C(=N\NC(=O)c1ccccc1)c1ccc(NC(=O)c2cccs2)cc1 | -14.2
CN(C)S(=O)(=O)c1ccc(C(=O)OCC(=O)c2ccc3c(c2)NC(=O)CO3)cc1 | 11.4
CN(C)S(=O)(=O)c1cccc(-c2nnc(SCc3ccc4c(c3)OCCO4)o2)c1 | -5.21
CN(C)CCC(=O)c1ccc(F)cc1.Cl | -7.33

Structure (SMILES) | hERG current change (%, negative = inhibition) at 10uM [%]
Cc1ccc(-n2c(SCC(=O)OC(C)C)nnc2-c2ccco2)cc1 | -37.7
COc1ccc(S(=O)(=O)N2CCC3(CC2)CC(=O)c2ccccc2O3)cc1 | -24.8
COc1ccc(Oc2ncnc3c2ncn3Cc2ccccc2)cc1 | -11.9
CC(C)(C)Cc1nnc(NC(=O)c2ccc3c(c2)OCO3)s1 | 27
Clc1ncccc1-c1nc2ccccc2n1Cc1ccccc1 | -33.5
COC(=O)C(O)(c1ccc(N=Cc2ccccc2O)c(C)c1)C(F)(F)F (stereo not drawn) | 9.51
O=C(O)c1cccc(Nc2nc(-c3cc4ccccc4oc3=O)cs2)c1 | 20.9
CCn1c(=NC(=O)C2COc3ccccc3O2)sc2c(C)ccc(OC)c21 (stereo not drawn) | 9.04
CCOC(=O)C1CCN(C(C(=O)NC2CCCC2)c2ccc(C)cc2)CC1 (stereo not drawn) | -21.8
CCc1ccccc1N(C(=O)c1cccs1)C1C=CS(=O)(=O)C1 (stereo not drawn) | -35.7
CN(C)S(=O)(=O)c1cccc(NC(=O)CSc2nc3ccccc3n2-c2ccccc2)c1 | 5.62
Cc1ccc(S(=O)(=O)NC2CCCCC2)c(C)c1NS(C)(=O)=O | 15.2
CC(C)C(=O)Nc1ccc(NC(=S)NC(=O)c2ccccc2F)cc1 | -4.84
CSc1nnc([C@@H](N)Cc2ccccc2)o1.Cl | -14.5
O=[N+]([O-])c1cccc(/C=N/Nc2ccccn2)c1 | 10.3
CC(=O)Nc1ccc(NC(=O)c2ccccc2CC[N+](=O)[O-])cc1 | 3.07
Cc1nn(C)c(Cl)c1NC(=O)OCc1ccc(F)cc1 | 1.51
Cc1ccc(C)c(C(C)NC(=O)C2CCCO2)c1 (stereo not drawn) | 17.6
CCOc1ccc(C(=O)NN2C(=O)C3C4C=CC(O4)C3C2=O)cc1 (stereo not drawn) | -14

Structure (SMILES) | hERG current change (%, negative = inhibition) at 10uM [%]
C/C(CC(=O)Nc1ccc(C)c(Cl)c1)=N\NC(=O)c1cccc(O)c1 | 4.04
COCCNC(=S)NNc1ccccc1[N+](=O)[O-] | 21.5
CCOC(=O)Cc1nn(Cc2ccccc2)c(=O)c2ccccc12 | -25.7
CSc1nc(N)n2nc(-c3ccccc3)cc2n1 | 9.91
O=C(N[C@H](C(=O)O)c1ccccc1)C1CCC(Cn2cnc3ccccc3c2=O)CC1 (stereo partly drawn) | 5.75
CCOc1ccccc1NC(=O)c1cc(SC)ccc1Cl | 50.4
COc1ccc(/C=N\NC(=O)c2ccccc2Cl)cc1COc1c(F)c(F)c(F)c(F)c1F | 11.6
Cc1ccc(C(=O)OCC(=O)N(C)C2CCS(=O)(=O)C2)cc1[N+](=O)[O-] (stereo not drawn) | 5.04
N#CCCn1nnc(-c2ccccc2F)n1 | 28.4
CCOc1cc2[nH]c(=O)n(Cc3cccc(OC)c3)c(=O)c2cc1OCC | 10.4
COc1ccc(CN(C)C(=O)Cc2c[nH]c3ccccc23)cc1 | 13.5
CCCCSc1nnc(-c2cc3c(C(F)(F)F)nn(C)c3s2)n1C | -6.8
C/C(=N\NC(=O)c1ccncc1)c1c(O)n(-c2ccccc2)c(=O)[nH]c1=O | 7.65
O=C(c1cccc(S(=O)(=O)Nc2ccccc2Cl)c1)N1CCC1 | -0.443
CCn1c(SCC(=O)Nc2cc(C)on2)nnc1-c1cccs1 | -10.6
O=C(NNC(=O)c1ccc(F)cc1)c1ccncc1 | 16
O=C(NCC1CCCO1)c1ccc(NS(=O)(=O)c2ccccc2)cc1 (stereo not drawn) | 18.4
CCCCc1nc(Cl)c(C#N)c2c1CSC(C)(C)C2 | -13.1
O=c1c2ccccc2c(-c2ccccc2)nn1-c1ccccc1 | 2.58
